According to PMC6919601, “Identification of Plasmodium dipeptidyl aminopeptidase allosteric inhibitors by high throughput screening” (PLoS ONE, 2019):
About 230 (0.21%) of roughly 110,000 compounds showed an effect of 50% or more. This is one part of the list.

Each compound was assayed against DPAP1 (Plasmodium falciparum, UniProt Q8IIJ9) (assay: primary screen, percent inhibition; read by cleavage of a fluorogenic dipeptide substrate; higher = more effect of the substance).
Design: species or system P. falciparum D10 trophozoite lysates; single well
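Also: 30 min substrate incubation versus DMSO and 10 µM JCP410 controls.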

Sequence of DPAP1 (Q8IIJ9 whole entry, looked up): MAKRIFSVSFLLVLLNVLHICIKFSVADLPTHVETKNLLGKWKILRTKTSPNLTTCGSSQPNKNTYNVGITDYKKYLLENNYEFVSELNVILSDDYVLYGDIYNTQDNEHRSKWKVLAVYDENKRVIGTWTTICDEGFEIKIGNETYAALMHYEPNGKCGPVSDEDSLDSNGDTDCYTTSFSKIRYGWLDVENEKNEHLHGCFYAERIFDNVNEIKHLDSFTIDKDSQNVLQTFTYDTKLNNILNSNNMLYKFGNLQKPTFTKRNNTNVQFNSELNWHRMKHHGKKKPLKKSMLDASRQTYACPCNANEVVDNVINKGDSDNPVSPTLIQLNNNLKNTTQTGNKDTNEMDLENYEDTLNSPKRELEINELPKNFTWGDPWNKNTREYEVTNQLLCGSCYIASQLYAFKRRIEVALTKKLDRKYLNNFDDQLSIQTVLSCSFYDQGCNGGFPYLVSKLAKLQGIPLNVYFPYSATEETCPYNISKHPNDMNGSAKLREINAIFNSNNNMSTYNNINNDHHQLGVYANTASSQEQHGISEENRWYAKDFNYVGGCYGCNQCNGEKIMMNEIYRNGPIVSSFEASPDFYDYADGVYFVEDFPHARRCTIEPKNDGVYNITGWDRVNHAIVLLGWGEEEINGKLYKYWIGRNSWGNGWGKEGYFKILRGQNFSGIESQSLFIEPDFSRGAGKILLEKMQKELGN

Structure (SMILES)	% Inhibition @ 10 uM
Nc1nc(-c2cccc([N+](=O)[O-])c2)nc2c1c(=O)oc1ccccc12	3.25%
Cc1ccc(C2=NN(CC(=O)N3CCCCC3)C(=O)CC2)cc1	2.18%
O=C(NC1CCCCCC1)C1CCN(S(=O)(=O)c2c[nH]cn2)CC1	2.9%
COc1ccc2nc(NC(=O)CSCCc3ccccn3)sc2c1	3.47%
O=C(O)C1C2C=CC(O2)C1C(=O)NCCCn1ccnc1 (stereo not drawn)	-2.22%
CCC(C)NC(=O)C1CCC(=O)N1Cc1ccc(C)cc1 (stereo not drawn)	-0.0542%
CSC1=C(C#N)C(c2cccs2)C(C(=O)Nc2ccccc2C)=C(C)N1 (stereo not drawn)	2.76%
CC(C)CCNCc1c(C(=O)O)n(Cc2ccccc2)c2ccccc12	0.277%
O=C(O)C1CCCCC1C(=O)Nc1cccc2ccccc12 (stereo not drawn)	-0.305%
COc1cccc(NC(=O)C2CC(=O)N(c3ccc(Cl)cc3)C2)c1 (stereo not drawn)	3.9%
CCCN(CCC)CCNC(=O)c1cn(C)c(=O)c2cc(OC)c(OC)cc12	-2.49%
CN(C)CCCN(C(=O)c1cccc(C(F)(F)F)c1)c1nc2c(F)cccc2s1	2.01%
NC(=O)c1c(NC(=O)c2cc(Br)ccc2Cl)sc2c1CCC2	7%
CCOc1ccccc1CNC(=O)Cn1nc(C)c2sc3ccccc3c2c1=O	-5.44%
Cc1sc2ncnc(SCc3ccc(F)cc3)c2c1C	2.56%
COc1ccccc1C(=O)/C=C(\O)C(=O)Nc1sc2c(c1C#N)CCC2	0.738%
CC1CCN(c2nc(Cc3ccc(Cl)cc3Cl)nc3c2nnn3C)CC1	0.0367%
O=C(NCCNC(=O)C(F)(F)F)c1ccncc1	-5.38%
COc1ccc(OC)c(NC(=O)CCCN2C(=O)c3ccccc3C2=O)c1	-5.46%
CCO/C=N/C1=C(C#N)C(c2ccccc2)C2=C(CC(C)(C)CC2=O)O1 (stereo not drawn)	-0.233%
CCS(=O)(=O)C1=NSC2=NC(=O)/C(=C\c3ccc(OCCOc4ccccc4)cc3)C(=N)N21	-1.58%
CS(=O)(=O)N1CCCC(C(=O)NCc2ccco2)C1 (stereo not drawn)	5.35%
COc1ccc(CNCc2c(F)cccc2F)cc1OC	-6.94%
C=CCOc1nc2c(c(=O)n(C)c(=O)n2C)n1Cc1cccc(Cl)c1	3.6%
CC(=O)Nc1ccc(-c2cn3cccc(C)c3n2)cc1	-11.4%

Structure (SMILES)	% Inhibition @ 10 uM
Cc1ccc(C)c(NC(=O)c2ccc(C(=O)Nc3cc(C)ccc3C)cc2)c1	0.526%
CC(C)CC(=O)Nc1nn2c(C(C)C)nnc2s1	1.64%
CCOC(=O)N1CCC(NC(=O)c2cccc3c2C(=O)N(Cc2cccnc2)C3)CC1	-2.29%
Cc1ccc(C)c(Cn2c(N3CCC(C(=O)NCc4ccco4)CC3)nc3ccccc32)c1	-5.03%
Cc1ccc2oc(=O)c3cnn(CC(=O)NCCc4c[nH]c5ccccc45)c3c2c1	3.2%
Cc1ccc2c(cnn2C(=O)CCC(=O)NCc2ccco2)c1	-2.88%
O=C(c1cccc(Cl)c1)N1CCN(c2ncccn2)CC1	0.138%
CC12CN3CC(C)(CN(C1)C3(CCC(=O)O)C(=O)O)C2=O (stereo not drawn)	-2.44%
Cc1nc2ccccn2c1-c1csc(Nc2ccc(C(=O)O)cc2)n1	7.24%
N#CCNC(=O)C(CC1CCCCC1)C(=O)NC1CCCCC1 (stereo not drawn)	-0.214%
O=C(O)CN1C(=O)S/C(=C\c2cccn2-c2cccc(Br)c2)C1=O	-1.6%
CCOc1ccc(/C=N\n2cnnc2)cc1OCC	11.9%
Cc1cc(C)c2c(n1)sc1c(=O)n(-c3ccccc3)c(=O)[nH]c12	-1.32%
CCCOc1ccc2ccccc2c1/C=C1\SC(=O)NC1=O	0.751%
Brc1ccc2ncnc(-c3ccccc3)c2c1	-1.32%
CCOC(=O)c1c(NC(=O)c2ccnn2C)sc(C)c1C	6.08%
CCOC(=O)c1c(NC(=O)Cn2cnc3ccccc32)sc2c1CCCC2	6.08%
CN(C)c1ccc(/C=C/C(C)(O)c2ccccc2)cc1 (stereo not drawn)	-2.63%
COc1ccccc1CNC(=O)CNC(=S)N(Cc1ccccc1)Cc1cccs1	1.27%
Cc1cc(F)ccc1NC(=O)c1sc2nc(-c3ccncc3)ccc2c1N	3.53%
COc1ccc(OC)c(N(CC(=O)Nc2ccc(F)cc2)S(=O)(=O)c2ccccc2)c1	-4.43%
Cc1cccc(N2CCN(C(=O)C3CC4CCC3C4)CC2)c1C (stereo not drawn)	-0.267%
CO/C(O)=C1/C(C)=NC2=C(C(=O)CC(C)(C)C2)C1c1ccc(SC)cc1 (stereo not drawn)	1%
CS(=O)(=O)c1nc(S(=O)(=O)c2ccc(Cl)cc2)c(NCCCN2CCOCC2)s1	-0.522%
Cc1ccc(CN2C(=O)CCC2C(=O)NCCc2ccc(Cl)cc2)cc1 (stereo not drawn)	1.62%

Structure (SMILES)	% Inhibition @ 10 uM
CCc1ccc(/C(O)=C/c2nc3ccccc3nc2O)cc1	3.15%
Nc1ccc(Nc2nc(-c3ccc(Cl)cc3)cs2)cc1	-6.43%
Cc1cccc(CCNC(=O)c2cc3ccc4cccnc4c3[nH]2)c1	1.06%
CCOc1ccc(-c2nonc2NC(=O)c2oc3ccccc3c2C)cc1OCC	-1.47%
NC(=O)c1cc(NC(=O)c2ccc(F)cc2)cc(C(N)=O)c1	0.843%
O=C(Nc1ccc(F)cc1)c1cnccn1	-1.54%
COc1ccccc1/C=C1\SC(=O)N(CCC(=O)N2CCOCC2)C1=O	23.6%
NC(=O)C1CCN(C(=S)NC(=O)c2ccc(Cl)cc2)CC1	4.7%
Cc1ccccc1CCNC(=O)CCn1ccc2cc(S(=O)(=O)N3CCCC3)ccc21	3.99%
CC(=O)c1c(S)nc(-c2ccccc2)nc1Nc1ccccc1Cl	4.54%
CC1CCCC(N(C)C(=O)C2CCC(CNS(=O)(=O)c3cccc4nsnc34)CC2)C1C (stereo not drawn)	1.26%
CCN(CC)C(=O)Cn1cc(SCC(=O)NCc2ccc(C)cc2)c2ccccc21	3.25%
O=c1/c(=C/c2cccc3ccccc23)sc2nc(-c3ccccc3)nn12	-3.33%
COc1ccc(S(=O)(=O)NC2CCSC2=O)cc1 (stereo not drawn)	0.815%
Cc1cc(C)cc(NS(=O)(=O)c2ccc(NC(=O)C(F)(F)F)cc2)c1	-2.76%
CC1CCN(C(=O)CSc2nnc(Cc3cccn3C)n2-c2ccc(Cl)cc2)CC1	-3.1%
O=S(=O)(NCCNS(=O)(=O)c1cccc2cccnc12)c1cccc2cccnc12	-2.37%
CCc1c(C#N)c(SC)nc(C)c1C(=O)Nc1ccccc1	1.43%
NC(=O)C1(N2CCCCC2)CCN(S(=O)(=O)c2ccc(-c3ccccc3)cc2)CC1	1%
Cc1nc(C)c(C(=O)NCc2nc3ccccc3[nH]2)s1	5.54%
CCc1ccc(-c2cn3nc(C(CC)CC)sc3n2)cc1	-0.946%
Cc1ccc(S(=O)(=O)N2CCN(CCCOc3cc(C)ccc3C)CC2)cc1	3.94%
Cc1ccc(CNC(=O)C(NS(=O)(=O)c2cccc3nsnc23)c2ccccc2)cc1 (stereo not drawn)	10.9%
COc1ccc(-c2cc3c(=O)n(CC(=O)NC(C)c4ccccc4)ncn3n2)cc1 (stereo not drawn)	-1.08%
COc1ccc(C(=O)Nc2nnc(CC(C)(C)C)s2)cc1OC	-3.33%

Structure (SMILES)	% Inhibition @ 10 uM
Cc1ccc(CNC(=O)CCn2ccc(C)n2)cc1	-5.52%
CCCNC(=O)Cn1ncc2c3ccccc3n(Cc3cccc(Cl)c3)c2c1=O	-3.35%
CC1CCCCC1NC(=O)Cn1ncc2c3ccccc3n(Cc3ccc(F)cc3)c2c1=O (stereo not drawn)	-1.58%
C=CCC1(C#N)C(S)=NC2=C(C(=O)CC(C)(C)C2)C1C (stereo not drawn)	2.7%
O=C(CCCOc1ccc(Cl)cc1Cl)N1CCCCC1	-1.92%
Cc1ccc2nsnc2c1NC(=O)c1cccc(Cl)c1	3.1%
COc1ccc(OC)c(CCNC(=O)C2CCCN(c3nc4c(C)cc(C)cc4s3)C2)c1 (stereo not drawn)	6.46%
CCCC(=O)NCc1nc2ccccc2n1C(C)c1ccccc1 (stereo not drawn)	-2.28%
CCOC(=O)c1c(C(=O)OCC)c(C)n(CCc2ccc(OC)c(OC)c2)c1C	1.68%
Cc1cccc(NC(=O)c2ccc(COc3ccc(Cl)cc3Cl)o2)n1	0.413%
COCCN1C(=O)c2[nH]nc(-c3ccccc3O)c2C1c1ccc(C(C)(C)C)cc1 (stereo not drawn)	0.366%
Clc1cc(Cl)c2c(-c3ccccc3)[nH]nc(-c3ccccc3)c1-2	-2.51%
Cc1c(C(=O)NCc2ccccn2)sc2nc(-c3ccccc3)cn12	-0.138%
COc1ccc(NC(=O)Cc2coc3ccc4ccccc4c23)cc1	-1.38%
COC(=O)c1ccc(/C=c2\sc3nc(-c4ccc(OC)c(OC)c4)nn3c2=O)cc1	0.561%
COc1cc(NC(=O)c2sc3nc4c(cc3c2N)CCCCC4)cc(OC)c1	4.83%
Cc1ccc2nc3c(O)n(CCCN4CCN(C)CC4)cnc-3c2c1	-3.52%
CCOC(=O)c1cc2c(=O)n3ccccc3nc2n(CC(C)C)/c1=N/C(=O)CCc1ccccc1	-1.2%
O=C(c1ccccc1)c1ccc2nc(NCCO)c3nncn3c2c1	-2.14%
CC12CC3CC(C)(C1)CC(C(=O)CCC(=O)O)(C3)C2	-0.833%
COc1cc(OC)cc(C(=O)N2CCN(Cc3cc(OC)c(O)c(OC)c3)CC2)c1	-3.41%
COc1ccc(CCNC(=O)c2ccc(C3SCC(=O)N3Cc3ccccc3)cc2)cc1 (stereo not drawn)	0.193%
Cn1c(=O)c2c(nc(NCc3ccccc3)n2CCC#N)n(C)c1=O	-9.24%
C1=C(c2ccccc2)Nc2nnnn2C1c1ccccc1 (stereo not drawn)	-3.93%
